Reference: the supplement of paper PMC10300432

B1: C5190 (protein)
chain 1: EVQLLESGGALVQPGGSLRLSCAASGFTFSGYVMTWVRQAPGKGLEWVASISGSGGARNHADFVKDRFTISRDNSKNTLYLQMNSLRAEDTAMYYCTKLPMIATSGTGGGDFWGQGTLVTVSS
chain 2: DIQMTQSPSTLSASVGDRVTITCRASESISSWLAWYQQKPGQVPKLLIYKASSLESGAPSRFSGSGSGTEFTLTISSLQPDDSATYYCQQYYSWWTFGQGTKVEIK
B2: C5180 (protein)
chain 1: EVQLLESGGGLVQPGGSLRVSCAASGFTFSNYAMSWVRQTPGKGLEWVSTIIASSDNTYYADSVKGRFTISRDNSKNTLYLQMNSLRAEDTAVYYCAKDPVRHIVVVTPIWYFDLWGRGTLVTVSS
chain 2: QSVLTQPPSVSGAPGQRVTISCTGSSTNIGAGYDVHWYQQLPGTAPKLLIYGDTNRPSGVPGRFSGSKSGTSASLAITGLQPEDEADYYCQSYDYNLSGSVFGGGTKLTVL
B3: C5179 (protein)
chain 1: QVQLVQSGPEVKKPGTSVKVSCKASGFTFSLSAVQWVRQARGQRLEWIGWSVPGRGNTKFAQKFQERVTITRDMSTSTAYMELSSLRSEDTAVYYCAAPHCNSTTCYDGFDIWGQGTMVTVSS
chain 2: EIVLTQSPGTLSLSPGERATLSCRASQSVSSSYFAWYQQKPGQAPRLLIYGASSRATGIPDRFSGSGSGTDFTLTISSLEPEDFAVYYCQQYGRSEWTFGQGTKVEIK
B4: C5187 (protein)
chain 1: QVQLVESGGAVVQPGRSLRLSCAASGFTFSSYGMHWVRQAPGKGLEWVAVIWLDGIKTYYVDSVKGRFTISRDNSKNTVYLQMNSLRAEDTAVYYCARHGSGNYYGYYFDWWGQGTLVTVSS
chain 2: DIQMTQSPSSLSASVGDRVTITCRASQSVSDFLNWYQQTPGKAPKLLIYAASSLHSGVPSRFSGSGSGTDFTLTITSLHPEDFATYYCQQSYITPGTFGPGTKVDIK
B5: C5183 (protein)
chain 1: QVQLVQSGAEVKKPGSSVKVSCKASGDIFSNYDIIWVRQAPGQGLEWMGGIIPIFGTANYAQKFQGRVTITADRSTTTAYMELSSLKSEDTAVYYCARHCGSASCSWVYGMDVWGQGTTVTVSS
chain 2: DIQLTQSPSSLSASVGDRVTISCRASQGISSALAWYQQKSGKAPKLLVYDASTLGSGVPSRFSGSGSGTDFILTISSLQPEDFATYYCQQFKSYPRLTFGGGTKVEIK
B6: C5040 (protein)
chain 1: EVQLLESGGGLVQPGGSLRLSCAASGFIFSNYAMNWVRQAPGKGLEWVSGISGSSSSRYYADSVKGRFTISRDNSKNTLYLQMNSLRAEDTAVYYCAKPGYPRSYSYDTSGYSPYYFDYWGQGTLVTVSS
chain 2: DIQMTQSPSTLSASVEDRVTITCRASQSIGRWLAWYQHKPGKAPKLLIYDASSLESGVPSRFSGSGSGTEFTLTISGLQSDDFATYYCQHYNTYSGLPFGGGTKVEIK
B7: C5186 (protein)
chain 1: QVQLVQSGAEVKKPGASVKVSCKASGYTFTNYYMHWVRQAPGQGLQWMGVIDPSGGSTTYAQKFQGRVIMTRDASTSTVYMAVSSLRSEDTAVYYCARVPYGSGQPPQDFFDYWGQGTLVTVSS
chain 2: SYELTQPPSVSVAPGQTARIPCGGNDIGSKNVHWYQQKPGQAPFLVVYDDTDRPSGIPERFSGSNSGNTATLTISRVVAGDEADYYCQVWESSGDHWVFGGGTKLTVL
B8: C5188 (protein)
chain 1: QVQLVQSGAEVKKPGSSVKVSCKASGGTFSNHAINWVRQAPGQGLEWMGGNIPIFKTAQYAQKFQGRITITADESTSTAYMELSSLKSDDTAVYFCARENSATIAFGEVIVIANYFDHWGQGTLVTVSS
chain 2: DIQMTQSPSSLSASVGDRVTITCRASQSISRHLNWYQQKPGKAPSLLIYAASNLQSGVPSRFSGSASGTDFTLTISGLQPEDFATYYCQQSYTTFSFTFGPGTKVDIK

Target: SARS-CoV-2 Omicron BA.1 spike pseudovirus
Test: pseudovirus neutralization IC50; higher = weaker neutralization
Experimental: (§1)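 Single-round luciferase reporter pseudovirus mixed with antibody dilutions and put on HT1080-ACE2 clone 14 cells for 48 h; signal relative to no-antibody wells, four-parameter fit.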

Binder	pseudovirus neutralization IC50
B1	0.71 mg/L
B2	> 1 mg/L
B3	0.00179 mg/L
B4	0.0136 mg/L
B5	0.00474 mg/L
B6	> 1 mg/L
B7	> 1 mg/L
B8	> 1 mg/L

Target: SARS-CoV-2 Omicron BA.4/5 spike pseudovirus
Test: as above
Experimental: as §1

Binder	pseudovirus neutralization IC50
B1	0.0269 mg/L
B2	> 1 mg/L
B3	> 1 mg/L
B4	> 1 mg/L
B5	0.00386 mg/L
B6	> 1 mg/L
B7	> 1 mg/L
B8	0.64 mg/L

Target: SARS-CoV-2 Wuhan-Hu-1 spike pseudovirus
Test: as above
Experimental: as §1

Binder	pseudovirus neutralization IC50
B1	0.0183 mg/L
B2	> 1 mg/L
B3	0.00144 mg/L
B4	0.00298 mg/L
B5	0.00338 mg/L
B6	0.122 mg/L
B7	0.797 mg/L
B8	0.877 mg/L

Target: SARS-CoV-2 Wuhan-Hu-1 spike receptor-binding domain
Test: ELISA binding EC50; higher = weaker binding; ELISA of recombinant human antibody on coated antigen, from 10 µg/ml in fourfold dilutions; four-parameter fit.

Binder	ELISA binding EC50
B1	0.00333 mg/L
B2	0.00613 mg/L
B3	0.00277 mg/L
B4	0.00457 mg/L
B5	0.00414 mg/L
B6	0.0182 mg/L
B7	0.00413 mg/L
B8	0.00429 mg/L

Recombinant human monoclonal antibodies (heavy:light variable regions). ELISA EC50 on the named antigen, from 10 µg/ml down; IC50 against spike pseudovirus on HT1080-ACE2 cells, 48 h; lower = stronger. Calls: IC50 above 1,000 ng/ml = non-neutralizing; EC50 above 1,000 ng/ml = non-binder.
